# Results taken from PubChem BioAssay (Tox21).
# “And” between values parts separate entries of the source, which are not always exact repeats. Equal values may be shown once. Inconclusive results, whose numbers are uncertain, are shown with a selection of clear calls. Potencies beside an inconclusive call are fits to weak or partial responses and may not hold up. The source made the active and inactive calls. Unless noted, calls follow the shape of the dose curve; as a rule, active = well fitted curve in the direction sought with a large enough effect in the repeat runs; inconclusive = weak or mixed curves; inactive = no such curve, though single readings can be large; an effect the other way counts as inactive or inconclusive.
# Key:
# [1] = qHTS assay for identifying genotoxic compounds that show differential cytotoxicity against isogenic chicken DT40 cell lines with known DNA damage response pathways - wild type cell line (AID 743012); settings: DT40 wild type chicken cells viability, CellTiter-Glo, 40 h; activity change, negative = cytotoxicity: at 68.4 µM (top of the series) unless noted; also: nearly all actives have a fitted effect of over 60% in size
# Method in brief: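 Quantitative HTS on parental DT40 cells: 40 h compound treatment at 37 C/5% CO2, with viability then determined by CellTiter-Glo luminescence. Values serve as the DNA repair-proficient reference for differential cytotoxicity.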
# [2] = qHTS assay for identifying genotoxic compounds that show differential cytotoxicity against isogenic chicken DT40 cell lines with known DNA damage response pathways - Rev3 mutant cell line (AID 743014); settings: chicken DT40 Rev3-/- viability, CellTiter-Glo, 40 h; activity, negative = cytotoxicity: at 68.4 µM (top of the series) unless noted; also: nearly all actives have a fitted effect of over 55% in size
# [3] = qHTS assay for identifying genotoxic compounds that show differential cytotoxicity against isogenic chicken DT40 cell lines with known DNA damage response pathways - Rad54/Ku70 mutant cell line (AID 743015); settings: DT40 Rad54/Ku70 mutant viability, CellTiter-Glo, 40 h; activity change, negative = cytotoxicity: at 66.8 µM (top of the series); also: nearly all actives have a fitted effect of over 60% in size
# [4] = qHTS assay to identify small molecule antagonists of the androgen receptor (AR) signaling pathway - cell viability counter screen (AID 743033; also: nearly all actives have a fitted effect of over 45% in size); settings: AR-bla HEK293 viability, CellTiter-Glo luminescence, 16 h; activity change, negative = cytotoxicity: at 58.5 µM (top of the series) unless noted
# [5] = target: Androgen receptor (Homo sapiens) (UniProt P10275); assay: qHTS assay to identify small molecule antagonists of the androgen receptor (AR) signaling pathway (AID 743035; active = well fitted inhibition curve with a large enough effect in the signal ratio in the repeat runs, not every such curve was filed as active; inconclusive = weak or mixed curves, or effect the other way; inactive = no such curve, though single readings can be large or run the other way; the % refers to the signal ratio); settings: HEK293 AR-UAS-bla, R1881-stimulated, beta-lactamase FRET, 16 h; activity change, negative = inhibition: at 58.5 µM (top of the series) unless noted
# Chain of UniProt P10275 (P10275 whole entry, looked up): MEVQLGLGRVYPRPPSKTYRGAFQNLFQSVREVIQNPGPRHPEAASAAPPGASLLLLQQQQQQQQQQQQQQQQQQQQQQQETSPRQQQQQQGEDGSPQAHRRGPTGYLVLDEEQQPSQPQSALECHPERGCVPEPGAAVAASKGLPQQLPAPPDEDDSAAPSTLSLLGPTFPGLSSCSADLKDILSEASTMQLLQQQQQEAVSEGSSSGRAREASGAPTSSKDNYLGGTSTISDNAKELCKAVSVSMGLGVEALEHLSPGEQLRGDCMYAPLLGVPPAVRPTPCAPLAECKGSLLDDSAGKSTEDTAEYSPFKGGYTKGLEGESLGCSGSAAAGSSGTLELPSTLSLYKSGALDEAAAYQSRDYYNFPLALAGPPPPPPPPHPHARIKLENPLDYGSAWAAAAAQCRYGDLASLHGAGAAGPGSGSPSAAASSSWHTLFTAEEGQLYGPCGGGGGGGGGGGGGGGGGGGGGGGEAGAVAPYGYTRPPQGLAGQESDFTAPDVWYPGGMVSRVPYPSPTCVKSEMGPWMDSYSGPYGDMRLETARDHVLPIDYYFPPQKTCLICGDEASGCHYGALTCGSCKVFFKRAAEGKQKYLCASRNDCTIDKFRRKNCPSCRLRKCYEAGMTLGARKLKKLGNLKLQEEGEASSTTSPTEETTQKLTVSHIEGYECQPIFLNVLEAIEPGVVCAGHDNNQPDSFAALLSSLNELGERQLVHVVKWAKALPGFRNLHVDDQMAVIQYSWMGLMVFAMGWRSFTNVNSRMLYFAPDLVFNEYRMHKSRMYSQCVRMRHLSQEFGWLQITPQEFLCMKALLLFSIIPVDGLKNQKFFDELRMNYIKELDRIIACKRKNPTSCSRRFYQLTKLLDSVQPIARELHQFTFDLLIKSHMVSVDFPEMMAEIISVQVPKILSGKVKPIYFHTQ
# Method in brief: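 Cell line: GeneBLAzer AR-UAS-bla GripTite (HEK293). Stimulus: R1881 added after compound. Exposure: 16 h, 37C, 5% CO2. Readout: LiveBLAzer B/G FRET fluorescence after 2 h at room temperature.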
# % is scaled to controls: 0 for no effect and ±100 for the full control effect; potency is read from the fitted curve at half-maximal effect; tags tell the direction and shape of the fitted curve.
structure (smiles),measurement,setting,value
NC(=O)c1ncn([C@@H]2O[C@H](CO)[C@@H](O)[C@H]2O)c1N,Potency,[1],"inconclusive: 33.5 µM [rising, partial curve, poor fit]"
same,Potency,[2],"inconclusive: 16.8 µM [rising, partial curve, poor fit]"
same,Potency,[3],inactive
CCN(CC)CC(=O)Nc1c(C)cccc1C,Potency,[1],"inconclusive: 33.5 µM [cytotoxic, single point]"
same,Potency,[2],inconclusive: 33.5 µM [cytotoxic]
same,Potency,[4],"inconclusive: 0.0017 µM [cytotoxic, full curve, poor fit]"
same,Potency,[5],inconclusive: 26.8 µM
O=C=NC1CCC(CC2CCC(N=C=O)CC2)CC1 (stereo not drawn),Potency,[1],"inconclusive: 68.6 µM [cytotoxic, single point]"
same,Potency,[3],"inconclusive: 68.6 µM [cytotoxic, single point]"
Oc1ccc2c(c1)OC[C@@H](N1CCC(O)(c3ccc(F)cc3)CC1)[C@H]2O,Potency,[1],"inconclusive: 33.5 µM [cytotoxic, single point]"
same,Potency,[2],"inconclusive: 29.8 µM [cytotoxic, single point]"
same,Potency,[3],inconclusive: 29.8 µM [cytotoxic]
CC(C)(C)C(=O)OCOP(=O)(COCCn1cnc2c(N)ncnc21)OCOC(=O)C(C)(C)C,Potency,[1],"inconclusive: 33.5 µM [cytotoxic, single point]"
same,Potency,[2],"inconclusive: 29.8 µM [cytotoxic, partial curve]"
same,Potency,[3],"inconclusive: 33.5 µM [cytotoxic, single point]"
CC1CC(O)CC(C)(C)C1 (stereo not drawn),Potency,[1],"inconclusive: 33.5 µM [rising, partial curve, poor fit]"
same,Potency,[2],"inconclusive: 17.2 µM [cytotoxic, full curve]"
same,Potency,[4],inactive
Cc1ccc(S)cc1,Potency,[1],active: 61.1 µM
same,Potency,[2],"inconclusive: 68.6 µM [cytotoxic, single point]"
same,Potency,[3],"inconclusive: 43.3 µM [cytotoxic, partial curve]"
NCCS,Potency,[1],"inactive and inconclusive: 29.8 µM [cytotoxic, single point]"
same,Potency,[3],inconclusive: 29.8 µM [cytotoxic]
CCC(CC)Nc1ccc(C)c(C)c1,Potency,[1],"inconclusive: 68.6 µM [cytotoxic, single point]"
same,Potency,[2],"inconclusive: 68.6 µM [cytotoxic, single point]"
same,Potency,[3],"inconclusive: 68.6 µM [cytotoxic, single point]"
COC(=O)C1CC(=O)C(C(=O)OC)CC1=O (stereo not drawn),"activity change, negative = cytotoxicity",[1],inactive: -1.23% [at 8.52 µM]
same,"activity change, negative = cytotoxicity",[3],inactive: -1.14% [at 8.55 µM]
c1ccc(-c2ccc(-c3ccccc3)cc2)cc1,Potency,[1],"inconclusive: 0.996 µM [rising, partial curve]"
same,Potency,[3],inactive
COC(=O)/C=C(\C)CCC=C(C)C,Potency,[1],"inconclusive: 68.6 µM [cytotoxic, single point]"
same,Potency,[2],"inconclusive: 68.6 µM [cytotoxic, single point]"
same,Potency,[3],"inconclusive: 68.6 µM [cytotoxic, single point]"
C[N+](C)(CCOc1ccccc1)Cc1cccs1,Potency,[1],"inconclusive: 29.8 µM [cytotoxic, single point]"
same,Potency,[2],"inconclusive: 16.8 µM [cytotoxic, partial curve, poor fit]"
same,"activity change, negative = inhibition",[5],inconclusive: 10.4%
Cc1ccc(C)c(OCCCC(C)(C)C(=O)O)c1,Potency,[1],"inconclusive: 15.5 µM [rising, single point]"
same,Potency,[2],inactive
same,Potency,[5],"inconclusive: 49 µM [rising, partial curve, poor fit]"
same,"activity change, negative = inhibition",[5],inconclusive: -26.2% [at 78.9 µM]
O=C(OCCOCCOC(=O)c1ccccc1)c1ccccc1,Potency,[1],inconclusive: 68.6 µM [cytotoxic]
same,Potency,[2],"inconclusive: 68.4 µM [cytotoxic] and inconclusive: 61.1 µM [cytotoxic, partial curve]"
same,Potency,[3],"inconclusive: 61.1 µM [cytotoxic, single point]"
CNNCc1ccc(C(=O)NC(C)C)cc1,Potency,[1],inactive
same,Potency,[2],"inconclusive: 43.3 µM [cytotoxic, partial curve, poor fit]"
same,Potency,[3],"inconclusive: 54.5 µM [cytotoxic, partial curve]"
C#CCN(C)CCCOc1ccc(Cl)cc1Cl,Potency,[1],inconclusive: 33.5 µM [cytotoxic]
same,Potency,[3],"inconclusive: 33.5 µM [cytotoxic, single point]"
